Measured values from the supplement of paper PMC11741623.
The other results are listed elsewhere or left out. Interaction screen of human proteins with wild-type SARS-CoV-2 proteins by split-DHFR complementation in yeast, 1 µg/mL methotrexate. Value = fitness of the pair (three or more lineages) minus that of the viral protein without a human partner, on a scale set by negative (0) and fused positive (1) controls, mean of up to three cultures; higher = more likely to interact. Active = false discovery rate below 0.05 (one-sided t-test) in at least one culture. Nearly all pairs are not hits, and differences among them are mostly noise (correlation between cultures about 0.3); most hits were seen in one culture only. Human sequences are the Swiss-Prot entries looked up by gene name; the clone may be another isoform. NSP2 values were corrected by the authors for a growth advantage. Listed are human proteins with a hit and a random twelfth of the others.

B1: KRT33B, Q14525 (protein)
chain: MPYNFCLPSLSCRTSCSSRPCVPPSCHGYTLPGACNIPANVSNCNWFCEGSFNGSEKETMQFLNDRLASYLEKVRQLERDNAELENLIRERSQQQEPLLCPSYQSYFKTIEELQQKILCSKSENARLVVQIDNAKLAADDFRTKYQTEQSLRQLVESDINSLRRILDELTLCRSDLEAQMESLKEELLSLKQNHEQEVNTLRCQLGDRLNVEVDAAPAVDLNQVLNETRNQYEALVETNRREVEQWFATQTEELNKQVVSSSEQLQSYQAEIIELRRTVNALEIELQAQHNLRYSLENTLTESEARYSSQLSQVQSLITNVESQLAEIRSDLERQNQEYQVLLDVRARLECEINTYRSLLESEDCKLPSNPCATTNACEKPIGSCVTNPCGPRSRCGPCNTFGY
B2: PSMB9, P28065 (protein)
chain: MLRAGAPTGDLPRAGEVHTGTTIMAVEFDGGVVMGSDSRVSAGEAVVNRVFDKLSPLHERIYCALSGSAADAQAVADMAAYQLELHGIELEEPPLVLAAANVVRNISYKYREDLSAHLMVAGWDQREGGQVYGTLGGMLTRQPFAIGGSGSTFIYGYVDAAYKPGMSPEECRRFTTDAIALAMSRDGSSGGVIYLVTITAAGVDHRVILGNELPKFYDE

Target: SARS-CoV-2 E
Test: yeast fitness gain over the viral ORF with no human partner (scaled fitness); higher = more likely to interact
Protocol: (§1)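 Split mouse DHFR complementation in pooled diploid yeast: human ORFeome clones carry one fragment and viral ORFs the other; barcoded lineages compete in 1 µg/mL methotrexate and fitness is read by barcode sequencing in up to three cultures.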

Row | Binder | yeast fitness gain
1 | B1 | inactive: -0.0371
2 | B2 | inactive: -0.0125

Target: SARS-CoV-2 M
Test: as above
Protocol: as §1

Row | Binder | yeast fitness gain
3 | B1 | inactive: -0.114
4 | B2 | inactive: -0.196

Target: SARS-CoV-2 N
Test: as above
Protocol: as §1

Row | Binder | yeast fitness gain
5 | B1 | inactive: 0.0744
6 | B2 | inactive: 0.0716

Target: SARS-CoV-2 NSP1
Test: as above
Protocol: as §1

Row | Binder | yeast fitness gain
7 | B1 | inactive: -0.0142
8 | B2 | inactive: -0.0145

Target: SARS-CoV-2 NSP10
Test: as above
Protocol: as §1

Row | Binder | yeast fitness gain
9 | B1 | inactive: -0.0163
10 | B2 | inactive: -0.154

Target: SARS-CoV-2 NSP12
Test: as above
Protocol: as §1

Row | Binder | yeast fitness gain
11 | B1 | inactive: -0.0199
12 | B2 | inactive: 0.0782

Target: SARS-CoV-2 NSP13
Test: as above
Protocol: as §1

Row | Binder | yeast fitness gain
13 | B1 | inactive: 0.0353
14 | B2 | inactive: 0.0559

Target: SARS-CoV-2 NSP15
Test: as above
Protocol: as §1

Row | Binder | yeast fitness gain
15 | B1 | inactive: -0.0376
16 | B2 | inactive: 0.00764

Target: SARS-CoV-2 NSP16
Test: as above
Protocol: as §1

Row | Binder | yeast fitness gain
17 | B1 | inactive: -0.0604
18 | B2 | inactive: 0.00855

Target: SARS-CoV-2 NSP2
Test: as above
Protocol: as §1

Row | Binder | yeast fitness gain
19 | B1 | inactive: -0.164
20 | B2 | inactive: -0.17

Target: SARS-CoV-2 NSP4
Test: as above
Protocol: as §1

Row | Binder | yeast fitness gain
21 | B1 | inactive: -0.227
22 | B2 | inactive: -0.0573

Target: SARS-CoV-2 NSP5
Test: as above
Protocol: as §1

Row | Binder | yeast fitness gain
23 | B1 | inactive: -0.0176
24 | B2 | inactive: 0.0897

Target: SARS-CoV-2 NSP6
Test: as above
Protocol: as §1

Row | Binder | yeast fitness gain
25 | B1 | inactive: 0.0644
26 | B2 | inactive: 0.0617

Target: SARS-CoV-2 NSP7
Test: as above
Protocol: as §1

Row | Binder | yeast fitness gain
27 | B1 | inactive: 0.0272
28 | B2 | inactive: 0.0381

Target: SARS-CoV-2 NSP8
Test: as above
Protocol: as §1

Row | Binder | yeast fitness gain
29 | B1 | inactive: 0.0446
30 | B2 | inactive: -0.0273

Target: SARS-CoV-2 NSP9
Test: as above
Protocol: as §1

Row | Binder | yeast fitness gain
31 | B1 | inactive: 0.0277
32 | B2 | inactive: 0.0146

Target: SARS-CoV-2 ORF10
Test: as above
Protocol: as §1

Row | Binder | yeast fitness gain
33 | B1 | inactive: -0.0126
34 | B2 | inactive: -0.00967

Target: SARS-CoV-2 ORF3A
Test: as above
Protocol: as §1

Row | Binder | yeast fitness gain
35 | B1 | inactive: 0.0279
36 | B2 | inactive: 0.128

Target: SARS-CoV-2 ORF3B
Test: as above
Protocol: as §1

Row | Binder | yeast fitness gain
37 | B1 | inactive: 0.0527
38 | B2 | inactive: 0.0255

Target: SARS-CoV-2 ORF6
Test: as above
Protocol: as §1

Row | Binder | yeast fitness gain
39 | B1 | inactive: -0.0308
40 | B2 | inactive: 0.0137

Target: SARS-CoV-2 ORF7A
Test: as above
Protocol: as §1

Row | Binder | yeast fitness gain
41 | B1 | inactive: -0.0144
42 | B2 | inactive: -0.0904

Target: SARS-CoV-2 ORF7B
Test: as above
Protocol: as §1

Row | Binder | yeast fitness gain
43 | B1 | inactive: 0.058
44 | B2 | inactive: -0.0531

Target: SARS-CoV-2 ORF8
Test: as above
Protocol: as §1

Row | Binder | yeast fitness gain
45 | B1 | inactive: -0.0203
46 | B2 | inactive: -0.000703

Target: SARS-CoV-2 ORF9B
Test: as above
Protocol: as §1

Row | Binder | yeast fitness gain
47 | B1 | inactive: -0.00506
48 | B2 | inactive: 0.03

Target: SARS-CoV-2 ORF9Bwu (the 73-codon ORF)
Test: as above
Protocol: as §1

Row | Binder | yeast fitness gain
49 | B1 | inactive: -0.0415
50 | B2 | inactive: -0.0329

Target: SARS-CoV-2 S
Test: as above
Protocol: as §1

Row | Binder | yeast fitness gain
51 | B1 | inactive: 0.0138
52 | B2 | inactive: -0.0491

Target: SARS-CoV-2 NSP14
Test: as above
Protocol: as §1

Row | Binder | yeast fitness gain
53 | B2 | inactive: 0.108
